# Data as given in patent US9000023B2, “Disubstituted phthalazine hedgehog pathway antagonists” (Eli Lilly and Company, priority 2009, dated 2015).
# Test system: CYP3A
# Conditions: human liver microsomes; kinact and KI cannot be determined
compound,measurement,value
"CN(C(=O)c1ccc(F)cc1C(F)(F)F)C1CCN(c2nnc(-c3ccnn3C)c3ccccc23)CC1.Cl [Example 1a, 4-Fluoro-N-methyl-N-(1-(4-(1-methyl-1H-pyrazol-5-yl)phthalazin-1-yl)piperidin-4-yl)-2-(trifluoromethyl)benzamide hydrochloride]",mechanism based inhibitor of CYP3A4 (conclusion),not a mechanism based inhibitor of CYP3A4
